# According to PubChem BioAssay (NCATS):
# Values joined by “and” are separate entries in the source; they are usually repeats but may differ in a detail not shown here. Identical values can stand only once. The inconclusive results got no clear call from the source; some entries with a clear call stand among them for comparison. For some assays here: A potency beside an inconclusive call is a rough fit, not a confirmed value. Active and inactive are the calls of the source. Unless noted, calls follow the shape of the dose curve; as a rule, active = well fitted curve in the direction sought with a large enough effect; inconclusive = small, poorly fitted or top-dose-only effect, or another doubt; inactive = no such curve, though single readings can be large; an effect the other way counts as inactive or inconclusive.
# Assays:
# [1] = Viability qHTS for spleen associated tyrosine kinase inhibitor (SYKi) naive MV4-11 cells (AID 1963823); also: nearly all actives have a fitted effect of over 40% in size
# How it was run: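 SYKi-naive MV4-11 AML cells, 500 per well, were exposed to library compounds for 72 hr at 37 C, 5% CO2. Viability was then read by CellTiter-Glo luminescence after 10 min at room temperature.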
# [2] = Viability qHTS for spleen associated tyrosine kinase inhibitor (SYKi) drug resistant MV4-11 cells (AID 1963824); also: nearly all actives have a fitted effect of over 35% in size
# How it was run: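 SYK inhibitor-resistant MV4-11 AML cells, 500 per well, added to predispensed compounds and incubated 72 hr at 37 C, 5% CO2. Viability measured by CellTiter-Glo luminescence after 10 min at room temperature.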
# [3] = Cellular viability qHTS for adrenocortical cancer (ACC) cell line NCI-H295R (AID 1963990); settings: CellTiter-Glo ATP luminescence, 48 h; series mostly up to 46.1 µM; also: nearly all actives have a fitted effect of over 60% in size
# How it was run: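 Luminescent ATP read-out (CellTiter-Glo, 20 min RT) after 48 h drug exposure of NCI-H295R cells; a titration up to 46 uM final. Data normalized to doxorubicin (100% inhibition) and DMSO (0%); 4-parameter fit gives IC50, max response.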
# [4] = target: Polyprotein P1234 (Chikungunya virus (strain S27-African prototype)) (UniProt Q8JUX6); test: Secondary cell base assay for inhibitors of NSP2Pro Chikungunya virus (CHIKV) (AID 1964100; calls by dose curve; also: nearly all actives have a fitted effect of over 70% in size)
# [5] = target: Furin (Homo sapiens) (UniProt P09958); test: Selectivity profile for inhibitors of NSP2Pro chikungunya virus (CHIKV): Human furin counterscreen (AID 1964102; calls by dose curve)
# [6] = test system: Hepatitis C virus NS3/4A protease; test: Selectivity profile for inhibitors of NSP2Pro chikungunya virus (CHIKV): NS34A-HCV Counterscreen (AID 1964106; calls by dose curve; also: nearly all actives have a fitted effect of over 55% in size); settings: activity change, negative = inhibition: at 50.9 µM (top of the series) unless noted
# [7] = Quantitative highthroughput screen to assess conditional lethalithy of SEM cells grown in RPMI1640 with dialyzed fetal bovine serum (RPMI+ds) (AID 1963884); also: nearly all actives have a fitted effect of over 35% in size
# How it was run: (§1)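 Each medium arm—HPLM with 10% dialyzed FBS, or RPMI1640 with 5 mM glucose and 10% untreated or dialyzed FBS—was screened against an 11-point, 3-fold compound titration for 48 h at 37 °C, with CellTiter-Glo luminescence as endpoint.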
# [8] = Quantitative highthroughput screen to assess conditional lethalithy of NOMO1 cells grown in Human Plasma-Like Medium with dialyzed fetal bovine serum (HPLM+ds) (AID 1963878); also: nearly all actives have a fitted effect of over 35% in size
# How it was run: as §1
# [9] = Quantitative highthroughput screen to assess conditional lethalithy of P12 Ichikawa cells grown in RPMI1640 with untreated serum (RPMI+s) (AID 1963881); settings: Potency: viability; also: nearly all actives have a fitted effect of over 35% in size
# How it was run: as §1
# [10] = Quantitative highthroughput screen to assess conditional lethalithy of SEM cells grown in RPMI1640 with unreated serum (RPMI+s) (AID 1963883); also: nearly all actives have a fitted effect of over 35% in size
# How it was run: as §1
# [11] = Quantitative highthroughput screen to assess conditional lethalithy of NOMO1 cells grown in RPMI1640 with dialyzed fetal bovine serum (RPMI+ds) (AID 1963877); also: nearly all actives have a fitted effect of over 30% in size
# How it was run: as §1
# [12] = Quantitative highthroughput screen to assess conditional lethalithy of SEM cells grown in Human Plasma-Like Medium with dialyzed fetal bovine serum (HPLM+ds) (AID 1963882); also: nearly all actives have a fitted effect of over 35% in size
# How it was run: as §1
# [13] = Cellular viability qHTS for adrenocortical cancer (ACC) cell line SW-13 (AID 1963989); settings: SW-13 ACC cells viability, CellTiter-Glo, 48 h; activity (max response): stronger effect = lower value; also: nearly all actives have a fitted effect of over 65% in size
# How it was run: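 SW-13 cells in ITS-supplemented serum-free DMEM were plated overnight, then exposed for 48 h at 37C to compound titrations (up to 46 uM final). Viability was read by CellTiter-Glo luminescence; four-parameter logistic fits gave IC50 and efficacy.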
# [14] = Quantitative highthroughput screen to assess conditional lethalithy of P12 Ichikawa cells grown in RPMI1640 with dialyzed fetal bovine serum (RPMI+ds) (AID 1963880); settings: Potency: P12-Ichikawa viability; also: nearly all actives have a fitted effect of over 35% in size
# How it was run: as §1
# [15] = Quantitative highthroughput screen to assess conditional lethalithy of NOMO1 cells grown in RPMI1640 with untreated serum (RPMI+s) (AID 1963876); also: nearly all actives have a fitted effect of over 35% in size
# How it was run: as §1
# [16] = Quantitative highthroughput screen to assess conditional lethalithy of P12 Ichikawa cells grown in Human Plasma-Like Medium with dialyzed fetal bovine serum (HPLM+ds) (AID 1963879); settings: Potency: viability; also: nearly all actives have a fitted effect of over 35% in size
# How it was run: as §1
# Potency is read from the fitted curve at half-maximal effect; tags tell the direction and shape of the fitted curve.
# UniProt P09958, sequence (P09958 whole entry, looked up): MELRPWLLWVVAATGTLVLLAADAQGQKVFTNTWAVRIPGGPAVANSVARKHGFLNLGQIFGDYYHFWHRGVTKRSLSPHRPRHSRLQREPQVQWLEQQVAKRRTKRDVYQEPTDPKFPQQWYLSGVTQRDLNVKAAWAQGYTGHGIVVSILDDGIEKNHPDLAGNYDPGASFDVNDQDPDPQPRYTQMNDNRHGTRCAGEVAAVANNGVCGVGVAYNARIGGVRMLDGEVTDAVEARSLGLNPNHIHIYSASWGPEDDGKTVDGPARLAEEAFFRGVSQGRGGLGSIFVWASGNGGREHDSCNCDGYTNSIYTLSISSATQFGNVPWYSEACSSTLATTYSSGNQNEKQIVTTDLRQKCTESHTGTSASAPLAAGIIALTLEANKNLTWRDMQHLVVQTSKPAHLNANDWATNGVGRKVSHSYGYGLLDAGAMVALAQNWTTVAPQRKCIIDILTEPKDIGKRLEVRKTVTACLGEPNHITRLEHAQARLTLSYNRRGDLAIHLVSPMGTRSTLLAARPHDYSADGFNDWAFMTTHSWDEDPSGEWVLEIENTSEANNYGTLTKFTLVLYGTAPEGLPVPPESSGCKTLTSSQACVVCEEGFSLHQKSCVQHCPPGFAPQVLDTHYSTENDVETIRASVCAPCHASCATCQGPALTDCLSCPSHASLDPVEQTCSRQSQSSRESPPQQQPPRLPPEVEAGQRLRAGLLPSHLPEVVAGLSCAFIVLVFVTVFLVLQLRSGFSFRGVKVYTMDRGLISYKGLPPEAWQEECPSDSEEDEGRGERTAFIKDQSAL
# UniProt Q8JUX6, sequence (Q8JUX6 220-798 limits assumed): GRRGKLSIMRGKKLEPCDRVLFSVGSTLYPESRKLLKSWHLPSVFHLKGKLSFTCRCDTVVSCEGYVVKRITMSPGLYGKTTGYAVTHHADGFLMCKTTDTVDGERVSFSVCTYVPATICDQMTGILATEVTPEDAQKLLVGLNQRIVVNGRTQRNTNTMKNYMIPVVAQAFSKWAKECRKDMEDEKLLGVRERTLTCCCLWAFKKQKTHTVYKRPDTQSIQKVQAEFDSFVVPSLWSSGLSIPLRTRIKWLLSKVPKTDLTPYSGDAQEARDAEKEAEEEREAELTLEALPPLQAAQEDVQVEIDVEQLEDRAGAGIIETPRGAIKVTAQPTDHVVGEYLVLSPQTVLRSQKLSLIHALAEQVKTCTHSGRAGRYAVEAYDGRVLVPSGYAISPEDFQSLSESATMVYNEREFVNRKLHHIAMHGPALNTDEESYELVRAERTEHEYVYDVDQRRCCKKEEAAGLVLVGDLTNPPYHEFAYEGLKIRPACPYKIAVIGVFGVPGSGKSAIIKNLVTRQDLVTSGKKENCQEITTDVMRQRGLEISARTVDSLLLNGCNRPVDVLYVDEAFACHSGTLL
smiles,measurement,setting,value
C[C@]12Cc3cn[nH]c3C[C@@H]1CC[C@@H]1[C@@H]2CC[C@@]2(C)[C@H]1CC[C@]2(C)O,Potency,[1],"inconclusive: 4.73 µM [cytotoxic, partial curve] and inconclusive: 18.6 µM [cytotoxic, partial curve]"
same,Potency,[2],"inconclusive: 8.41 µM [cytotoxic, partial curve] and active: 18.6 µM"
same,Potency,[3],"inconclusive: 4.61 µM [cytotoxic, full curve, poor fit] and inactive"
CC(C)NCC(O)c1ccc([N+](=O)[O-])cc1 (centres undefined),Potency,[1],inactive
same,Potency,[2],inactive
same,Potency,[3],"inconclusive: 4.61 µM [cytotoxic, single point]"
C[C@@H]1O[C@@H](O[C@@H]2C=C3CC[C@@H]4[C@H](CC[C@]5(C)[C@@H](c6ccc(=O)oc6)CC[C@]45O)[C@@]3(C)CC2)[C@H](O)[C@H](O)[C@H]1O,Potency,[1],"inconclusive: 0.0166 µM [cytotoxic, full curve]"
same,Potency,[2],"inconclusive: 14.8 nM [cytotoxic, full curve]"
same,Potency,[3],active: 11.2 nM and active: 7.3 nM
CN1[C@@H]2CC[C@H]1CC(OC(=O)c1cc(Cl)cc(Cl)c1)C2 (some centres undefined),Potency,[1],inactive
same,Potency,[2],inactive
same,Potency,[3],"inconclusive: 13 µM [cytotoxic, partial curve, poor fit]"
Cc1ncsc1CCCl,Potency,[1],inactive
same,Potency,[2],inactive
same,Potency,[3],"inconclusive: 0.184 µM [cytotoxic, full curve]"
O=S(=O)(O)C(F)(F)C(F)(F)C(F)(F)C(F)(F)F,Potency,[1],"inconclusive: 0.0021 µM [rising, full curve]"
same,Potency,[2],"inconclusive: 3.6 nM [rising, full curve]"
same,Potency,[3],"inconclusive: 56.2 µM [cytotoxic, single point]"
CC(Cc1ccc2c(c1)OCO2)NO (centres undefined),Potency,[1],"inconclusive: 18.7 µM [cytotoxic, partial curve, poor fit]"
same,Potency,[2],"inconclusive: 16700 nM [cytotoxic, partial curve]"
same,Potency,[3],inactive
COc1c2c(cc3c1OCO3)CCN(C)C2,Potency,[1],"inconclusive: 33.5 µM [cytotoxic, single point]"
same,Potency,[2],inactive
same,Potency,[3],inactive
N#CC(C#N)=Cc1ccc(O)c(O)c1,Potency,[1],"inconclusive: 18.8 µM [cytotoxic, partial curve]"
same,Potency,[2],"inconclusive: 29900 nM [cytotoxic, single point]"
same,Potency,[3],inactive
CC(=O)[O][Hg][c]1ccccc1,Potency,[1],"inconclusive: 0.841 µM [cytotoxic, full curve]"
same,Potency,[2],"inconclusive: 841 nM [cytotoxic, full curve]"
same,Potency,[4],active: 1.26 µM
same,Potency,[5],active: 1.16 µM
same,Potency,[6],"inconclusive: 0.517 µM [inhibitor, full curve]"
C#CCN(C)[C@H](C)Cc1ccccc1,Potency,[1],inactive
same,Potency,[7],"inconclusive: 0.0012 µM [rising, full curve]"
same,Potency,[3],"inconclusive: 11.6 µM [cytotoxic, partial curve, poor fit]"
CCN1C[C@]2(OC(=O)c3ccccc3NC(C)=O)CC[C@H](OC)[C@@]34[C@H]5CC6[C@@H](OC)C[C@](O)(C(C[C@@H]23)[C@@H]14)[C@@]5(O)[C@@H]6OC,Potency,[1],"inconclusive: 2.95 µM [cytotoxic, full curve, poor fit]"
same,Potency,[8],inactive
same,Potency,[9],inactive
same,Potency,[10],active: 6.62 µM
Cc1[nH]nc2ccc(-c3cncc(OC[C@@H](N)Cc4c[nH]c5ccccc45)c3)cc12,Potency,[1],"inconclusive: 0.058 µM [cytotoxic, full curve]"
same,Potency,[11],active: 0.743 µM
same,Potency,[8],active: 0.526 µM
same,Potency,[12],active: 0.187 µM
same,Potency,[10],active: 0.59 µM
same,Potency,[13],active: 0.708 µM
CCOc1ccccc1-n1c(C(C)N2CCN(C(=O)COc3ccc(Cl)cc3)CC2)nc2ccccc2c1=O (centres undefined),Potency,[1],active: 920 nM and active: 742 nM
same,Potency,[14],active: 1.05 µM
same,Potency,[13],"inconclusive: 6.31 µM [cytotoxic, single point]"
COC(=O)[C@@H](N)CCCN=C(N)N[N+](=O)[O-],Potency,[1],inactive
same,Potency,[14],inactive
C[C@]12CC[C@H]3[C@@H](CC[C@@]45O[C@H]4C(O)=C(C#N)C[C@]35C)[C@H]1CC[C@H]2O,Potency,[1],"inconclusive: 16.8 µM [cytotoxic, partial curve]"
same,Potency,[15],"inconclusive: 33.2 µM [cytotoxic, single point]"
same,Potency,[11],"inconclusive: 29.6 µM [cytotoxic, single point]"
same,Potency,[8],"inconclusive: 33.2 µM [cytotoxic, single point]"
same,Potency,[16],"inconclusive: 29.6 µM [cytotoxic, single point]"
same,Potency,[14],"inconclusive: 33.2 µM [cytotoxic, single point]"
same,Potency,[9],"inconclusive: 26.4 µM [cytotoxic, single point]"
same,Potency,[12],"inconclusive: 26.4 µM [cytotoxic, single point]"
same,Potency,[3],"inconclusive: 6.51 µM [cytotoxic, full curve]"
